# Reference: PubChem BioAssay AID1460 (National Center for Advancing Translational Sciences (NCATS), 2008)
# Where “and” joins values, the source holds several entries; their conditions need not be identical. Equal entries are not always repeated. The campaign covered roughly 270,000 compounds. About 5,800 (2.1%) were called active. This list was built around the results that the source calls inconclusive (neither active nor inactive); the mix of calls is not that of the screen. Calls follow the shape of the dose curve; as a rule, active = well fitted inhibition curve with a large enough effect; inconclusive = small, poorly fitted or top-dose-only effect; inactive = flat fitted curve, though single readings scatter. A potency beside an inconclusive call is a rough fit, not a confirmed value.
# Target: Microtubule-associated protein tau (Homo sapiens) (UniProt P10636)
# UniProt P10636, sequence (P10636 whole entry, looked up): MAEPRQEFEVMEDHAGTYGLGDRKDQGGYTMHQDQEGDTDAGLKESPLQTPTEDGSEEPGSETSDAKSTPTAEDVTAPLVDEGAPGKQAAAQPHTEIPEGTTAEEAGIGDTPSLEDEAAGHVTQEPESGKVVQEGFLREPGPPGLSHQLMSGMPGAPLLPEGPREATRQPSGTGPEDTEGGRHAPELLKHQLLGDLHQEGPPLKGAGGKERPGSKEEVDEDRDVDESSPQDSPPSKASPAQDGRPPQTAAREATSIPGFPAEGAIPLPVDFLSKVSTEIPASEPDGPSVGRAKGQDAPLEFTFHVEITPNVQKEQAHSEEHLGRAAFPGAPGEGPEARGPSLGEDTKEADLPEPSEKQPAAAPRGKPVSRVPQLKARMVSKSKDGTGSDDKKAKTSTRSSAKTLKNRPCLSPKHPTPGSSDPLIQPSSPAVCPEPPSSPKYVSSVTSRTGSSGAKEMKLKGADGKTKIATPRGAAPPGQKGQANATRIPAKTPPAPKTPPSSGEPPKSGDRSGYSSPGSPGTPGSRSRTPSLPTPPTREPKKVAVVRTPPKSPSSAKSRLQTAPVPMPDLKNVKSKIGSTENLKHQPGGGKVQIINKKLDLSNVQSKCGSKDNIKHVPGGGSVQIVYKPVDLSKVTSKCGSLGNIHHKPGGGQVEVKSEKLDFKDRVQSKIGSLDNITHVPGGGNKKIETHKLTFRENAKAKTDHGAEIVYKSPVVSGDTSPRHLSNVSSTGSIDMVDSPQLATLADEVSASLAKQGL
# Assay: qHTS for Inhibitors of Tau Fibril Formation, Thioflavin T Binding; also: nearly all actives have a fitted effect of over 55% in size
# Settings: recombinant tau K18 P301L (four-repeat tau fragment), heparin-induced fibrillization, ThT fluorescence; series mostly up to 57.4 µM
# Outline: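 Heparin-induced fibrillization of the P301L-mutant K18 repeat-domain fragment of human tau was followed by ThT binding in quantitative high-throughput format.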
# % is scaled to controls: 0 for no effect and ±100 for the full control effect; potency is read from the fitted curve at half-maximal effect; tags tell the direction and shape of the fitted curve.
Compound,Potency,"activity, negative = inhibition"
O=C(CNC(=S)N(CCCN1CCOCC1)Cc1cccs1)NCCN1CCOCC1,inactive,
CCOC(=O)c1c(NC(=O)C(=O)N/N=C/c2ccccc2O)sc2c1CCCCC2,inactive,
COC(=O)[C@@]1(Cc2ccc(F)cc2)[C@H]2c3cc(C(=O)N(C)C)n(Cc4cc(F)c(F)c(F)c4)c3C[C@H]2CN1C(=O)c1ccccc1,inactive,
O=C(N/N=C/c1c[nH]c2ccccc12)c1[nH]c2ccc(Br)cc2c1-c1ccccc1,"inconclusive: 10 µM [inhibitor, partial curve]",
Cc1nn(Cc2ccc(Cl)c(Cl)c2)c(C)c1NC(=O)c1cc(-c2ccco2)on1,inactive,
O=C(C1CCN(S(=O)(=O)c2cccc3nsnc23)CC1)N1CC=C(c2ccccc2)CC1,"inconclusive: 14.1 µM [inhibitor, partial curve]",
CCC1CCCCN1C(=S)Nc1ccc(OC(F)F)cc1 (stereo not drawn),inactive,
Cn1cc(SCC(=O)Nc2ccc3c(c2)OCO3)c2ccccc21,"inconclusive: 31.6 µM [inhibitor, single point]",
COc1ccc2c(CC(=O)N3CCc4ccccc43)coc2c1,"inconclusive: 7.08 µM [inhibitor, partial curve]",
Cc1ccn2c(-c3csc(NCc4ccco4)n3)c(C)nc2c1,"inconclusive: 31.6 µM [inhibitor, partial curve]",
CCOC(=O)C1CCCN(C/C(O)=C(\C#N)c2nc(-c3ccccc3)cs2)C1 (stereo not drawn),"inconclusive: 17.8 µM [inhibitor, partial curve, poor fit]",
C#CCCCO/N=C1/C[C@@H](O)[C@@H](O)[C@@H]2[C@@H]3C(=O)N(C4CCCCC4)C(=O)[C@H]3CC[C@@H]12,,inactive: -9.49% [at 11.5 µM]
COc1ccc(-c2cc(=O)c3c(O)c(OC)c(OC)c(OC)c3o2)cc1OC,"inconclusive: 3.98 µM [inhibitor, full curve]",
COC(=O)c1c(O)c2ccccc2[nH]c1=O,inactive,
CC1CN(c2nc3ccccc3nc2C(C#N)C(=O)NCc2ccc3c(c2)OCO3)CC(C)O1 (stereo not drawn),"inconclusive: 31.6 µM [inhibitor, partial curve]",
O=C(OCc1nc2scc(-c3ccccc3)c2c(=O)[nH]1)c1cc(Cl)ccc1[N+](=O)[O-],"inconclusive: 22.4 µM [inhibitor, partial curve, poor fit]",
Cc1ccccc1OCC(=O)N/N=C/c1ccc(N(C)C)cc1,"inconclusive: 4.47 µM [inhibitor, full curve]",
O=C(Nc1ccc2c(c1)OCO2)c1cc(-c2ccc(Cl)cc2)on1,"inconclusive: 0.562 µM [inhibitor, full curve]",
CN(C)C1(CNC(=O)COc2ccc(C(C)(C)C)cc2)CCCCC1,inactive,
CCOC(=O)c1c(C)[nH]c(C)c1S(=O)(=O)N1CCC(C(=O)NCc2ccc(N(C)C)cc2)CC1,"inconclusive: 7.94 µM [activator, single point]",
CCS(=O)(=O)c1cccc(C(=O)N2CCN(c3nc4c(C)ccc(Cl)c4s3)CC2)c1,inactive,
COC(=O)/C=C/C(=O)Nc1cccc(C(F)(F)F)c1,"inconclusive: 28.2 µM [inhibitor, single point]",
COc1ccc(O[C@H]2C=C[C@@H](c3ccccc3)O[C@@H]2COC(=O)CCC(C)=NO[C@@H]2O[C@H](COC(C)=O)[C@@H](OC(C)=O)[C@H](OC(C)=O)[C@H]2OC(C)=O)cc1,"inconclusive: 39.8 µM [inhibitor, single point]",

Compound,Potency,"activity, negative = inhibition"
Cc1cccc(-c2onc3ccc(C4(C)OCCO4)cc23)c1,"inconclusive: 20 µM [inhibitor, single point]",
Cc1[nH]n(-c2ccccc2)c(=O)c1/C=N/NC(=O)COc1ccccc1[N+](=O)[O-],"inconclusive: 22.4 µM [inhibitor, single point]",
O=C(COc1cccc(Br)c1)N/N=C/C(=O)c1ccccc1,"inconclusive: 28.2 µM [inhibitor, single point]",
Cc1ccc(C(=O)Nc2ccc(N3CCOCC3)nc2)cc1,"inconclusive: 22.4 µM [inhibitor, partial curve]",
O=C(O)CCC(=O)c1cccc2ccccc12,inactive,
Cc1ccc(S(=O)(=O)NCCc2nnc3ccc(SCC(=O)Nc4ccc(OC(F)(F)F)cc4)nn23)cc1,inactive,
Cc1ccc(-c2csc(NC(=O)c3cc([N+](=O)[O-])ccc3N3CCOCC3)n2)cc1,inactive,
O=C1COc2cc(S(=O)(=O)CCC(=O)N3CCN(c4ccccc4)CC3)c(Cl)cc2N1,"inconclusive: 0.224 µM [inhibitor, full curve]",
O=C(NC(=S)Nc1cccc2ncccc12)c1cccs1,inactive,
Cc1ccc(NCCC(=O)c2cccs2)cc1,inactive,
CCOC(=O)C1CCCN(Cc2ccccc2F)C1 (stereo not drawn),inactive,
CC(=O)Nc1ccc(S(=O)(=O)Nc2cc([N+](=O)[O-])ccc2C)cc1,inactive,
Cc1ccc(C(=O)Nc2sc3c(c2C(=O)NCc2ccco2)CCCC3)cc1,inactive,
O=C1C=C(O)CC(c2ccco2)C1 (stereo not drawn),"inconclusive: 3.16 µM [inhibitor, full curve]",
Cc1ccc(/C=C/C(=O)NCc2cccs2)c(C)c1,inactive,
O=C(c1cc(-c2ccccc2)on1)N1CCN(C(=O)c2ccco2)CC1,"inconclusive: 28.2 µM [inhibitor, partial curve, poor fit]",
CC(C)N(Cc1ccccc1)C(=O)CN1C(=O)COc2ccc(S(=O)(=O)N3CCCCCC3)cc21,inactive,
CCOC(=O)c1ccc(NC(=O)CSc2nc(SC)ns2)cc1,"inconclusive: 0.447 µM [inhibitor, full curve]",
O=C(O)/C=C/C(=O)Nc1cccnc1,inactive,
O=C(NC(=S)Nc1nc2c(s1)CCCC2)c1ccc(C(=O)c2ccccc2)cc1,inactive,
CCOP(=O)(OCC)/C(=N/OC(=O)c1ccc(OC)cc1)C(N)=O,"inconclusive: 14.1 µM [inhibitor, partial curve]",
N#Cc1c(/N=C/c2cccs2)sc2c1CCC2,active: 2.82 µM,
CCN(CC)c1ccc(/C=C(/C#N)c2nc3ccccc3[nH]2)c(OC(C)C)c1,"inconclusive: 11.2 µM [inhibitor, partial curve, poor fit]",

Compound,Potency,"activity, negative = inhibition"
N=C(N)SCCN,"inconclusive: 31.6 µM [inhibitor, single point] and inconclusive: 17.8 µM [inhibitor, partial curve, poor fit] and inconclusive: 17.8 µM [inhibitor, single point]",
CCN1C(=S)SC(=O)C1=C1C=C(C)N(CCO)C(C)=C1,"inconclusive: 15.8 µM [inhibitor, partial curve]",
Cc1nc2ccccc2c(=O)n1/N=C/c1c(O)ccc2ccccc12,"inconclusive: 1.26 µM [inhibitor, full curve, poor fit]",
Cc1cc(Cl)ccc1OCC(=O)N(Cc1ccc(N(C)C)cc1)CC1CCCO1 (stereo not drawn),"inconclusive: 22.4 µM [inhibitor, single point]",
Cc1nn(-c2ccccc2)c(Cl)c1/C=N/NC(=O)c1ccc(CNc2ccccc2)o1,"inconclusive: 7.94 µM [inhibitor, partial curve]",
O=C(C1CC1)N1CCN(c2nc3c(F)cc(F)cc3s2)CC1,"inconclusive: 1.26 µM [inhibitor, full curve]",
Cc1nc(C#N)c(N/N=C/c2c(F)cccc2Cl)o1,"inconclusive: 8.91 µM [inhibitor, partial curve]",
Cc1ccc(OCC(O)CN2CCN(c3ccccc3)CC2)cc1 (stereo not drawn),"inconclusive: 20 µM [inhibitor, partial curve]",
CC(C)C(=O)N1CCN(c2ccc(NC(=O)COc3ccccc3[N+](=O)[O-])cc2)CC1,"inconclusive: 12.6 µM [inhibitor, partial curve]",
CCCOc1ccc(OCC(=O)c2[nH]c(C)c(C(C)=O)c2C)cc1,"inconclusive: 7.94 µM [inhibitor, partial curve]",
CCCCCN1C(C(=O)c2ccccc2)=C(NC(C)=O)c2ccccc2S1(=O)=O,"inconclusive: 10 µM [inhibitor, partial curve]",
O=C(CSc1ncc2c(n1)-c1cc(Cl)ccc1N(Cc1ccccc1F)S2(=O)=O)Nc1cccc(C(F)(F)F)c1,inactive,
O=C(Oc1coc(CSc2nnc(NC(=O)C3CC3)s2)cc1=O)c1c(F)cccc1F,"inconclusive: 5.62 µM [inhibitor, partial curve]",
CCOC(=O)c1ccc(NC(=O)CSc2nccn2Cc2ccc(OC)cc2)cc1,inactive,
Cc1cc(C)cc(C(=O)Nc2nnc3n2CCS3)c1,inactive,
Cc1cc(NC(=O)C(C)(C)Oc2ccc(Cl)cc2)cc(-c2nc3ncccc3o2)c1O,inactive,
CC[n+]1c(/C=C/c2c[nH]c3ccccc23)ccc2cc(C)ccc21,active: 2 µM,
CC(=O)c1ccc(NC(=O)Nc2ccc3c(c2)N(C)C(=O)CS3)cc1,"inconclusive: 2.82 µM [inhibitor, partial curve]",
CC1=CCC2COC(c3ccc[n+](Cc4ccccc4)c3)C1C2 (stereo not drawn),"inconclusive: 15.8 µM [inhibitor, partial curve]",
O=C(OCc1cc(=O)n2nc(-c3cccs3)sc2n1)c1ccccc1Br,"inconclusive: 1.41 µM [inhibitor, full curve]",
COc1cccc(OCC(=O)NN=C2c3ccccc3-c3ccccc32)c1,"inconclusive: 10 µM [inhibitor, partial curve]",
COC(=O)C1=C(C)N=C2SC(C#N)=C(N)N2C1c1ccc(OCc2ccccc2)cc1 (stereo not drawn),"inconclusive: 28.2 µM [inhibitor, partial curve]",
